# “And” between values parts separate entries of the source, which are not always exact repeats. Equal values may be shown once. About 230 (0.21%) of roughly 110,000 compounds showed an effect of 50% or more. The list shows a part of the results.
# Target: DPAP1 (Plasmodium falciparum, UniProt Q8IIJ9)
# Assay: primary screen, percent inhibition; read by cleavage of a fluorogenic dipeptide substrate; higher = more effect of the substance
# Parameters: species or system P. falciparum D10 trophozoite lysates; single well
# 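Note: 30 min substrate incubation versus DMSO and 10 µM JCP410 controls.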
# Chain of DPAP1 (Q8IIJ9 whole entry, looked up): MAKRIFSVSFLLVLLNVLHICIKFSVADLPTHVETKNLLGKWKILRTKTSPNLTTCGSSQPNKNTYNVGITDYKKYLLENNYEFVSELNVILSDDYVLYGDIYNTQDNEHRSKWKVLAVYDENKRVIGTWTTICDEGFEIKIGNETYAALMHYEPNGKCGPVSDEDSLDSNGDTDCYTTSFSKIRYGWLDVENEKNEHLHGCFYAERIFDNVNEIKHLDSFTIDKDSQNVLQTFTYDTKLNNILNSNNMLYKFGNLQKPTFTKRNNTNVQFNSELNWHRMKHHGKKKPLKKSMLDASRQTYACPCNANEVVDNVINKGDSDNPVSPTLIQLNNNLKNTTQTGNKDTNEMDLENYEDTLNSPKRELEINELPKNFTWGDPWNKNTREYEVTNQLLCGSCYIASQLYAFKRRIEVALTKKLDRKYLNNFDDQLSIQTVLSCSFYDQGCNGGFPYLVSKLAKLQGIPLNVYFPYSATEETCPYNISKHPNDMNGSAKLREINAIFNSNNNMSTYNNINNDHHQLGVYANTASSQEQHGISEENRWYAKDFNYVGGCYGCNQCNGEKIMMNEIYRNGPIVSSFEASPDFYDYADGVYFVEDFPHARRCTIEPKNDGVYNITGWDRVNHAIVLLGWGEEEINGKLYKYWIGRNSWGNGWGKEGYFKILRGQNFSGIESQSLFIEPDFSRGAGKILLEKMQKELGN
row,SMILES,% Inhibition @ 10 uM
1,CC(C)CN1C(=O)c2ccccc2C(C(=O)N2CCC3(CC2)OCCO3)C1c1cccs1 (centres unmarked),1.69%
2,CCCCNC(=O)Nc1cnn(Cc2ccc(F)cc2)c1,-10.7%
3,CC(=O)Nc1c(C(=O)c2ccccc2)oc2ccccc12,3.34%
4,CC(CCCN1CCCCC1)Sc1ccc(O)cc1 (centres unmarked),-3.15% and -3.94%
5,NC(=O)COc1ccc(/C=C2\C(=O)ON=C2c2ccccc2)cc1,-4.35%
6,O=C(NC1CCCCCC1)C1CCCN(S(=O)(=O)c2cccs2)C1 (centres unmarked),-3.21%
7,O=c1cccc2n1C[C@H]1C[C@@H]2CN(Cc2ccc(Cl)c(Cl)c2)C1,0.132%
8,CCS(=O)(=O)N1CCC(c2nc3ccccc3s2)CC1,3.88%
9,O=C(Nc1cccc(NC(=O)c2cccc3ccccc23)c1)c1ccco1,2.7%
10,Oc1cccc(CN2CCN(C/C=C/c3ccccc3)CC2)c1,2.31%
11,COc1ccccc1[C@@H](C)C[C@H](NC(=O)OCC1c2ccccc2-c2ccccc21)C(=O)NCC#N,-6.56%
12,Cc1ccc(Cn2c(C)c3cnn(CC(=O)NCCN4CCOCC4)c(=O)c3c2C)cc1,2.84%
13,COc1ccc(N(CC(=O)Nc2ccc(OC)cc2OC)S(C)(=O)=O)cc1,1.05%
14,CC(=O)Nc1ccc(C2C(C#N)=C(N)Oc3[nH]nc(-c4ccc(Br)cc4)c32)cc1 (centres unmarked),-8.6%
15,O=C(O)c1ccccc1C(=O)N1CCCc2ccccc21,14.9%
16,O=C(O)c1nn(-c2ccccc2)c(O)c1/C=C1\C=Nc2ccccc21,8.63%
17,O=C(c1ccc(Cl)cc1)c1ccc(CSCc2ccco2)o1,0.895%
18,COc1ccc(C2C(C#N)=C(N)OC3=C2C(=O)CC(C)(C)C3)c(OC)c1 (centres unmarked),6.08%
19,CCOc1ccc(NC(=O)CSc2ncc(-c3ccccc3)n2C)cc1,-0.99%
20,Cc1ccc(/C=C2\C(=N)N3N=C(N4CCCCC4)SC3=NC2=O)cc1,0.0579%
21,CCCNC(=O)c1[nH]c2cc(OC)ccc2c1Sc1ccccc1,-0.229%
22,COc1cc(C2C(C#N)=C(N)N(c3ccccc3)C3=C2C(=O)CC(C)(C)C3)cc(OC)c1OC (centres unmarked),-6.08%
23,Cc1coc2c1c(C)cc1oc(=O)c(CC(=O)NCCc3ccccc3)c(C)c12,0.685%
24,FC(F)(F)COc1nc(N2CCCCC2)nc(N2CCOCC2)n1,4.22%
25,CCOC(=O)C1=C(C)N(CCOC)C(=O)/C1=C\c1cc(Br)ccc1OC,10.9%

row,SMILES,% Inhibition @ 10 uM
1,Cc1nc2c3ccccc3n3c(CCCC(=O)NC4CCCCC4)nnc3n2n1,-4.69%
2,CCOC(=O)c1sc(-c2ccccc2)c(C#N)c1C,2.7%
3,Cc1ccc2c(=O)c(C(=O)c3ccccc3)cn(CC(=O)NCc3ccco3)c2n1,1.48%
4,CCN1CCN(c2cc(C)nc3c(-c4ccccc4OC)c(C)nn23)CC1,0.238%
5,Fc1ccc(N2CCN(Cc3ccc(-c4ccccc4)cc3)CC2)cc1,-1.86%
6,Cc1ccc(/C=C/C(=O)NCCN2CCC(N(C)C3CCCCC3C)CC2)cc1 (centres unmarked),0.689%
7,O=C1NC(Nc2cccc(C(=O)O)c2)=N/C1=C\c1cccs1,-1.84% and 2.84%
8,COc1ccc([C@H]2NCC[C@@]3(O)CCCC[C@H]23)cc1OC,-3.55%
9,Cc1cc(/C=C2\C(=N)N3N=C(N4CCOCC4)SC3=NC2=O)c(C)n1-c1ccccc1F,0.0579%
10,O=C(O)CSc1ccc2ccccc2c1,-10.2%
11,COC(=O)NCC12CC3CC(CC(C3)C1)C2,-0.239%
12,Cc1cc2c(n1-c1ccc(C(=O)NCc3cccnc3)cc1)CCC(C)C2 (centres unmarked),-3.6%
13,COc1ccc(C2C(C(=O)c3ccc4c(c3)OCCO4)=C(O)C(=O)N2CCN(C)C)c(OC)c1 (centres unmarked),-2.84%
14,Cn1cnc2c(=O)oc3ccc(S(=O)(=O)NCCc4ccc(Cl)cc4)cc3c21,-6.5%
15,CCCN1CC2=C(N=C(S)NC2c2ccccc2)/C(=C/c2ccccc2)C1 (centres unmarked),-5.51%
16,O=C(Nc1cccc(F)c1)C12CC3CC(CC(C3)C1)C2,-1.59%
17,COc1ccc(N2CCN(C(=O)CN(c3ccccc3Cl)S(C)(=O)=O)CC2)cc1,-2.74%
18,CCCN1CCC(NCCN2CCOCC2)CC1,5.03%
19,CCOCCCNC(=O)CCc1c(C)nc2c3c(C)cc(C)nc3nn2c1C,-2.88%
20,Clc1ccc(OCCCN2CCOCC2)cc1,-0.351%
21,COC(=O)c1sc(N2C(=O)c3oc4ccccc4c(=O)c3C2c2ccccc2F)nc1C (centres unmarked),6.78%
22,CCc1ccc(NC2=NC(=O)C(CC(=O)Nc3ccccc3OC)S2)cc1 (centres unmarked),-2.8%
23,CC(C)CNC(=O)CCCOc1ccc(Cl)cc1Cl,3.48%
24,C#CCOc1ccc(C2C3=C(CCCC3=O)N(CC(=O)O)C3=C2C(=O)CCC3)cc1OCC,-3.39%
25,COc1ccc(N(CC(=O)NC(C)c2ccccc2)S(C)(=O)=O)cc1 (centres unmarked),1.52%

row,SMILES,% Inhibition @ 10 uM
1,CCOC(=O)c1ccc(NC(=O)c2ccco2)cc1,-7.42%
2,CSc1nc(N)nc2sc(C(=O)C34CC5CC(CC(C5)C3)C4)c(N)c12,4.97%
3,CCOc1ccc2[nH]c(SCC(=O)N3CCN(C(=O)c4ccc(C)cc4)C3)nc2c1,-5.38%
4,O=C(c1cnn(-c2ccccc2)c1-n1cccc1)N1CCN(Cc2ccccc2)CC1,-5.43%
5,NC(=O)C1(N2CCCCC2)CCN(C(=O)NC23CC4CC(CC(C4)C2)C3)CC1,1.61%
6,CCOC(=O)c1c(C)n(CCO)c2cc(O)cc(C)c12,-5.11%
7,O=C(O)CCCCCNC(=O)/C(=C\c1ccco1)NC(=O)c1ccco1,14.1%
8,Cc1ccnc(NC(=O)C(CCS(C)(=O)=O)N2Cc3ccccc3C2=O)c1 (centres unmarked),6.51%
9,CCCN1C(=O)c2cc(C(=O)NC3CCCCCC3)ccc2C1O (centres unmarked),-0.942%
10,CCCCN(CC)CCNC(=O)c1cc2c(O)nc3ccc(C)cc3c2s1,10.2%
11,Cn1c2c(s/c1=N\C(=O)c1ccco1)CCc1ccccc1-2,3.49%
12,O=C(Nc1sc2c(c1C(=O)NCC1CCCO1)CCC2)c1cccs1 (centres unmarked),-2.12%
13,NC(=O)C1CCN(C(=O)CCCn2sc3ccccc3c2=O)CC1,0.39%
14,CCc1c(-c2ccccc2)n(CCc2ccc(OC)c(OC)c2)c2nc3c(c(=O)n(C)c(=O)n3C)n12,-4.59%
15,OC(CN1CCC(O)(c2ccc(Cl)cc2)CC1)c1ccc(F)cc1 (centres unmarked),-2.76%
16,c1coc(CN2CCc3ccccc3C2)c1,6.18%
17,COc1ccc(S(=O)(=O)N2CCOCC2)cc1-c1nnc2c3ccccc3c(C)nn12,-4.78%
18,O=C1c2cccc(Cl)c2C(=O)N1c1ccccn1,-12.2%
19,O=C(COc1ccc(Cl)cc1Cl)NCc1ccc(Cl)cc1,0.52%
20,COc1ccc(/C=C2N=C(/C=C/c3ccc(Cl)cc3)OC/2=O)c(OC)c1,-6.82%
21,COc1ccc(-n2nc3c(N4CCCC(C(=O)NCCN(C)C)C4)nnc(C)c3c2C)cc1 (centres unmarked),3.91%
22,CCOc1cc(-c2cc(=O)c3ccccc3o2)ccc1O,1.81%
23,Cc1ccc(-n2ncc3c(O)nc(SCC(=O)N4CCC(C)CC4)nc32)cc1,-3.35%
24,CC(C)(C)c1cc(Br)ccc1OCC(=O)Nc1ccc(S(N)(=O)=O)cc1,1.87%
25,O=C(NCCCO)C1CC=CCC1C(=O)Nc1cccc2ccccc12 (centres unmarked),-1.74%

row,SMILES,% Inhibition @ 10 uM
1,COc1ccc(OC)c(C2NC(C(=O)O)Cc3c2[nH]c2ccccc32)c1 (centres unmarked),1.45%
2,CC(Oc1ccccc1)C(=O)Nc1nc2nc(-c3ccccc3)cc(O)n2n1 (centres unmarked),8.16%
3,O=C(c1ccc(F)cc1)c1oc2ccccc2c1NC(=O)C1COc2ccccc2O1 (centres unmarked),0.414%
4,C=CCn1c(Cc2ccccc2)nc2c(cnn2-c2ccccc2)c1=O,1.88%
5,CCn1cc(C(=O)NCc2ccccc2)cn1,3.9%
6,CN(C)c1ccc(NC(=O)c2nn(C)cc2Br)cc1,1.34%
7,O=C(COc1ccccc1Cl)Nc1ccc(S(=O)(=O)N2CCOCC2)cc1,0.889%
8,O=C(NCC1CCCO1)c1ccc(Br)o1 (centres unmarked),-3.63%
9,CC(CC(C)C(=O)Nc1ccccc1C(C)(C)C)C(=O)O (centres unmarked),-4.49%
10,Cc1ccc2[nH]c(SCC(=O)Nc3ccccc3C)nc2c1,-1.28%
11,O=S(=O)(c1ccccc1)c1ccccc1C(O)(c1ccccc1)c1ccccc1,-0.693%
12,O=C(Nc1nc2ccc(Cl)cc2s1)C1CCCN1S(=O)(=O)c1cccc2nsnc12 (centres unmarked),-2.25%
13,COC(=O)c1ccccc1NC(=O)C1CCN(S(C)(=O)=O)CC1,3.24%
14,COc1ccc(-c2csc(/C(C#N)=C/c3ccc(Cl)cc3)n2)cc1,7.59%
15,CC1(C)CC(=O)C2=C(C1)NC(=O)CC2c1cccc(C(F)(F)F)c1 (centres unmarked),-3.21%
16,O=C(NCc1ccc2c(c1)OCO2)c1nc(SCc2ccc(F)cc2)ncc1Cl,-8.39%
17,Cc1nn(-c2ccccc2)c2c1C(c1ccc(Cl)cc1)SCC(=O)N2 (centres unmarked),-10.1%
18,O=C(NCc1ccco1)c1ccc(C(=O)NCc2ccco2)cc1,-1.43%
19,O=C(/C=C/c1ccccc1Cl)NCc1nc2ccccc2[nH]1,11.6%
20,Cc1ccc(CN(CC(=O)Nc2ccccc2Cl)S(=O)(=O)c2ccccc2)cc1,0.163%
21,O=C(O)c1cc(-c2ccccc2)n(-c2ccccc2Cl)n1,-11.3%
22,COc1ccc(Cl)cc1C(=O)Nc1c2c(nn1-c1cccc(C)c1C)CS(=O)(=O)C2,5.21%
23,Cc1ccc(C(=O)N2CCN(c3ccc(F)cc3)CC2)o1,-1.42%

# From PMC6919601, “Identification of Plasmodium dipeptidyl aminopeptidase allosteric inhibitors by high throughput screening” (PLoS ONE, 2019)
